Among all 48,000 compounds or so, about 550 (1.1%) were called active. Roughly 4% stayed inconclusive and do not appear here. Rule as the data show it: active = potency below about 15 µM; inconclusive = mostly about 16 µM to 33 µM; inactive = weaker than that. Some of the results follow.
Potency is read from the fitted curve at half-maximal effect.

The experiment concerns the target Lysosomal acid glucosylceramidase (Homo sapiens) (UniProt P04062). Put plainly: Glucocerebrosidase.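 Also: the screen sought inhibitors.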 The following applies: purified enzyme, resorufin glucoside fluorescence (screen aimed at inhibitors), 20 min; series mostly up to 77 µM. In a few lines: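 Wild-type enzyme at 0.2 nM final in 50mM citric acid/KH2PO4, 10mM sodium taurocholate, 0.01% tween-20, pH 5.9, with resorufin beta-D-glucopyranoside at 30 uM final. Compounds titrated, 20 min at RT, red fluorescence read; AC50 from titration.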
Sequence of UniProt P04062 (P04062 whole entry, looked up): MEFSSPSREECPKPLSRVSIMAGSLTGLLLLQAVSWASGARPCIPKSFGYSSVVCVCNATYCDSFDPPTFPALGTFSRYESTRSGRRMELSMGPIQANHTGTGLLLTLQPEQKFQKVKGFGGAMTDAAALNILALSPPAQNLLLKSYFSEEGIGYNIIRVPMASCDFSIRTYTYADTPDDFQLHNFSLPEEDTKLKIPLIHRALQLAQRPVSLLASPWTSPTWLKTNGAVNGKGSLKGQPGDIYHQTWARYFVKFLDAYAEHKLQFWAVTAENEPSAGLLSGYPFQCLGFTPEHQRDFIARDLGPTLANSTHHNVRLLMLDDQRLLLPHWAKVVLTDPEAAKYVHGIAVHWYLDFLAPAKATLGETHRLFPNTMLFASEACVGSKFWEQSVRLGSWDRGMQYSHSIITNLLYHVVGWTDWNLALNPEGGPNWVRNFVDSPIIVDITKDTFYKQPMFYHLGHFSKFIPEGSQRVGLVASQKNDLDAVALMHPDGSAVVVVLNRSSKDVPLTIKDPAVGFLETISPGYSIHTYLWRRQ
Consider `COc1ccc(-c2cc3ccc(OCc4nn[nH]n4)cc3oc2=O)cc1`, for which the Potency is inactive: > 76.9 µM.

As to `O=C(NCCN1CCOCC1)c1cc(=O)[nH]c2ccc(Br)cc12`, the Potency is inactive: > 76.9 µM.

With `COc1ccc(OC)c(C(c2nnnn2Cc2ccccc2)N2CCN(C)CC2)c1` (stereo unspecified), the Potency was inactive: > 76.9 µM.

In the case of `c1ccc(-c2nn3c(Cn4nnc5ccccc54)nnc3s2)cc1`, the Potency is inactive: > 76.9 µM.

On to `Cc1ccc(C(=O)C2COC(=O)C2)cc1` (stereo unspecified), for which the Potency is inactive: > 76.9 µM.

Consider `COc1ccccc1C(=O)N1CCN(c2cccc(C(F)(F)F)c2)CC1`, for which the Potency is inactive: > 76.9 µM.

On to `O=C1CN(C(=O)CSc2nnc(-c3ccccc3)n2Cc2ccc3c(c2)OCO3)c2ccccc2N1`, for which the Potency was inactive: > 76.9 µM.

In the case of `COCCn1c(SCC(=O)N2CCCCC2)nc2ccccc2c1=O`, the Potency was inactive: > 76.9 µM.

Take `COc1ccccc1NC(=O)CN1CCN(Cc2ccccc2)CC1`: the Potency is inactive: > 76.9 µM.

For `Fc1ccccc1CSc1nnc(-c2ccccc2)o1`, the Potency is inactive: > 76.9 µM.

In the case of `CCC(=O)Nc1nc(CC(=O)Nc2ccccc2)cs1`, the Potency is inactive: > 76.9 µM.

On to `CCc1ccccc1Nc1nc(N)nc(CSCC(=O)c2cc(C)n(C)c2C)n1`, for which the Potency is inactive: > 76.9 µM.

Take `COc1ccc(OCC(=O)Nc2ccccc2C(=O)N2CCCC2)cc1`: the Potency is inactive: > 76.9 µM.

`O=C(NCc1ccc2c(c1)OCO2)C1CCCN1C(=O)Nc1cccc(Cl)c1` (stereo unspecified): the Potency is inactive: > 76.9 µM.

As for `CC1(C)CC(=O)C(C(c2ccncc2)C2C(=O)CC(C)(C)CC2=O)C(=O)C1`, the Potency was inactive: > 76.9 µM.

In the case of `CN1CCN(c2nc(-c3ccncc3)nc3ccccc23)CC1`, the Potency is inactive: > 76.9 µM.

With `Cn1cccc1C(=O)NC(=O)COC(=O)Cc1coc2ccc3ccccc3c12`, the Potency was inactive: > 76.9 µM.

Consider `O=C(CSc1ncc(-c2ccc(F)cc2)n1Cc1ccco1)Nc1nccs1`, for which the Potency is inactive: > 76.9 µM.

As for `O=C(COC(=O)CSCC(=O)N1CCCCC1)NCc1ccc(F)cc1`, the Potency was inactive: > 76.9 µM.

On to `COc1ccc(-n2c(N)c(C(=O)NCC3CCCO3)c3nc4ccccc4nc32)c(OC)c1` (stereo unspecified), for which the Potency is inactive: > 76.9 µM.

Take `CCN1CCC2(CC1)C(C#N)=C(N)Oc1c2sc2nc(C)cc(C)c12`: the Potency was inactive: > 76.9 µM.

Turning to `COc1cc(C(=O)OCC(=O)c2cc(C)n(C)c2C)cc(NC(=O)c2ccco2)c1OC`, the Potency was inactive: > 76.9 µM.

On to `C=CCn1c(COc2ccc(F)cc2)nnc1SCC(=O)NC(=O)NCc1ccco1`, for which the Potency was active: 15.2 µM.

Turning to `CCn1c(SCc2nc3ccccc3[nH]2)nnc1-c1ccncc1`, the Potency was inactive: > 76.9 µM.

Regarding `COc1cccc2cc(C(=O)C3=C(O)C(=O)N(CCCN(C)C)C3c3ccncc3)oc12` (stereo unspecified), the Potency was inactive: > 76.9 µM.

`CCOC(=O)CCCNC(=O)COC(=O)CCC(=O)c1ccc(F)cc1`: the Potency was inactive: > 76.9 µM.

`O=C(NCCCN1CCCC1=O)c1ccc2c(c1)NC(=O)C(N1CCOCC1)S2` (stereo unspecified): the Potency was inactive: > 76.9 µM.

For the compound `c1ccc2c(c1)oc1c(N3CCN(Cc4ccc5c(c4)OCO5)CC3)ncnc12`, the Potency is inactive: > 76.9 µM.

On to `COCC(C)n1c(C)cc(C(=O)CSc2nc3ccccc3c(=O)[nH]2)c1C` (stereo unspecified), for which the Potency was inactive: > 76.9 µM.

Turning to `COc1ccc(C(=O)Cn2c(Br)nc3c2c(=O)n(C)c(=O)n3C)cc1`, the Potency was inactive: > 76.9 µM.

For `COCCn1c(C)cc(C(=O)COC(=O)c2n[nH]c3ccccc23)c1C`, the Potency was inactive: > 76.9 µM.

As for `CCCS(=O)(=O)c1nnnn1-c1cccc(OC)c1`, the Potency was inactive: > 76.9 µM.

Turning to `COc1ccc(CCNC(=O)C2CCN(S(=O)(=O)N3CC(C)CC(C)C3)CC2)cc1OC` (stereo unspecified), the Potency was inactive: > 76.9 µM.

As for `COC(=O)CSc1nnc(C)n1-c1cccc(C#N)c1`, the Potency was inactive: > 76.9 µM.

For `Cc1ccc(CNC(=O)CN2CCN(Cc3ccc(C)cc3)C2=O)cc1`, the Potency was inactive: > 76.9 µM.

As for `COc1ccc2[nH]c3nc(SCc4nnc(-c5ccc(C)cc5)o4)nnc3c2c1`, the Potency was inactive: > 76.9 µM.

Consider `Cc1ccc(N2CC(C(=O)NCC3CCCO3)CC2=O)cc1Cl` (stereo unspecified), for which the Potency is inactive: > 76.9 µM.

On to `CCCCNC(=O)C1CCCN1C(=O)Nc1cccc(OC)c1` (stereo unspecified), for which the Potency is inactive: > 76.9 µM.

Consider `O=S(=O)(NCCOCC(F)(F)F)c1ccc2oc3ccccc3c2c1`, for which the Potency is inactive: > 76.9 µM.

On to `CCCOc1ccc(-c2cnc(SCC(N)=O)nc2N)cc1`, for which the Potency result was “inactive”.

As for `COc1ccc(-c2noc(C3CCCN(C(=O)c4ccccc4OC)C3)n2)cc1OC` (stereo unspecified), the Potency was inactive: > 76.9 µM.

As to `Cc1onc(-c2ccncc2)c1C(=O)O`, the Potency is inactive: > 76.9 µM.

As to `Cc1cc(-c2nnc3sc(-c4ccc(Cl)cc4Cl)nn23)n[nH]1`, the Potency was inactive: > 76.9 µM.

Consider `c1ccc(-c2noc(COc3ccc4c(c3)OCO4)n2)cc1`, for which the Potency is inactive: > 76.9 µM.

Regarding `O=C(Nc1nccs1)C1CCCN1S(=O)(=O)c1ccc(F)cc1` (stereo unspecified), the Potency was inactive: > 76.9 µM.

Turning to `O=C(O)C1CCCN1c1ncnc2c1oc1ccccc12` (stereo unspecified), the Potency was inactive: > 76.9 µM.

On to `Cc1cc(C)c(S(=O)(=O)NCCC2CCCN2C)c(C)c1` (stereo unspecified), for which the Potency was inactive: > 76.9 µM.

Turning to `CCOCCN1CCN(c2c(C)c(C)nc3cc(-c4cc(OC)cc(OC)c4)nn23)CC1`, the Potency was inactive: > 76.9 µM.

In the case of `CC(NS(=O)(=O)c1ccccc1)C(c1cccs1)N1CCN(c2ccccc2)CC1` (stereo unspecified), the Potency is inactive: > 76.9 µM.

Take `COCc1c(C(=O)OCC(=O)N2c3ccccc3CC2C)oc2ccccc12` (stereo unspecified): the Potency is inactive: > 76.9 µM.

In the case of `CCOC(=O)c1[nH]c(C)c(C(=O)c2cc(F)ccc2F)c1C`, the Potency was inactive: > 76.9 µM.

For the compound `COc1cc(NC(=O)CS(=O)(=O)c2ccccc2)cc(OC)c1OC`, the Potency is inactive: > 76.9 µM.

In the case of `COc1ccc(S(=O)(=O)N2CCCCCC2)cc1C(=O)OCc1c(C)noc1C`, the Potency was inactive: > 76.9 µM.

Turning to `Cc1occc1-c1nnc(SCC(=O)NCCc2ccccc2)n1C(C)c1ccccc1` (stereo unspecified), the Potency was inactive: > 76.9 µM.

Take `COc1ccc2nc3oc(C(=O)N4CCN(c5cccc(C(F)(F)F)c5)CC4)cc3cc2c1`: the Potency is inactive: > 76.9 µM.

For `O=S(=O)(c1cccc(S(=O)(=O)N2CCC(n3nnc4ccccc43)CC2)c1)N1CCCCC1`, the Potency was active: 10.5 µM.
